Laboratory results reported in PubChem BioAssay AID1508642 (National Center for Advancing Translational Sciences (NCATS), 2021).
The whole screen tested about 43,000 compounds, of which about 200 (0.47%) were called active. Inconclusive results (about 12%) are left out. Calls follow the shape of the dose curve; as a rule, active = well fitted cell-killing curve with a large enough effect; inconclusive = small, poorly fitted or top-dose-only effect, or effect the other way; inactive = flat fitted curve, though single readings scatter. The list shows a part of the results.

test: Cell viability qHTS assay in S16 Pmp22-F2sN cells; details: S16 Pmp22-F2sN Schwann cells (luciferase reporters placed in the Pmp22 gene) viability, CellTiter-Glo, 24 h; series mostly up to 57.5 µM; activity change, negative = cytotoxicity: at the top concentration; also: nearly all actives have a fitted effect of over 65% in size
In short: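 S16 Schwann cells carrying the Pmp22-F2sN reporter, seeded in 1536-well format, were exposed to library compounds for 24 h at 37C. Viability was read as CellTiter-Glo luminescence after 15 min at room temperature.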
% is scaled to controls: 0 for no effect and ±100 for the full control effect.

Structure (SMILES)	activity change, negative = cytotoxicity
CCOc1ccc(CCNC(=O)CSc2nc3ccccc3nc2Cc2ccc(C)cc2)cc1OCC	inactive: 12.4%
COc1c(C)cccc1C(=O)Nc1ccc(Cl)c(-c2nc3cc(C)ccc3o2)c1	inactive: -0.912%
COc1ccc(C(=O)Nc2ccc(N3CCN(c4ccccc4)CC3)c(C(=O)O)c2)cc1	inactive: 3.67%
CCOc1ccc(CCNC(=O)C(CC(C)C)N2Cc3ccccc3C2=O)cc1OCC (centres undefined)	inactive: -0.588%
CCN(CC)c1ccc(C(=O)NCc2ccc3c(c2)CCN3C(=O)c2cccc(C)c2)cc1	inactive: 7.65%
CCOc1ccc(S(=O)(=O)NCCc2csc3nc(-c4ccc(OC)c(OC)c4)nn23)cc1	inactive: 5.81%
Cc1nc(SCc2cc(=O)c3cccc(F)c3[nH]2)n[nH]1	inactive: -0.0826%
CCc1ccc(NC(=O)CC2C(=O)NCCN2C(=O)c2ccccc2OC)cc1 (centres undefined)	inactive: 10.4%
CCOCCc1nn2c(=O)cc(COC(=O)COc3ccc(C)c(C)c3)nc2s1	inactive: -1.82%
COc1cn(CC(=O)Nc2c(C)cc(C)cc2C)c(CN2CCCCC2)cc1=O	inactive: -3.73%
COc1ccc(NC(=O)Cn2ncc3c(C)n(Cc4cccc(Cl)c4)c(C)c3c2=O)cc1	inactive: -4.96%
CC(C)c1ccc(NC(=O)CSc2ncnc3c2sc2ccccc23)cc1	inactive: -2.06%
Clc1cccc(CSc2nc(NCCc3ccccc3)c3ccccc3n2)c1	inactive: -17.2%
COc1ccccc1CNCc1ccc(C(=O)O)s1	inactive: -0.29%
COc1cc2c(cc1NC(=O)COc1ccc(Br)c(C)c1)oc1ccccc12	inactive: -2.05%
CCC12CN3CC(CC)(CN(C1)C3c1cccc(OC)c1O)C2=O (centres undefined)	inactive: -3.27%
COc1ccc(-c2nc3ccccc3s2)cc1NC(=O)c1ccc(C#N)cc1F	inactive: 7.33%
CCn1c(C(=O)NCc2ccc(C)cc2)cc2sc(Cl)cc21	inactive: 26.9%
COc1ccc(-c2c(C)c3ccc(O)c(CN4CCCCC4)c3oc2=O)cc1OC	inactive: 1.27%
Cc1ccc2nc(N(Cc3cccnc3)C(=O)c3ccco3)sc2c1	inactive: 3.59%
Cc1cccc(N2CCN(C(=O)c3cn(C)c4ccc(S(=O)(=O)N(C)C)cc4c3=O)CC2C)c1 (centres undefined)	inactive: 9.32%
CCc1ccc(-n2c(SCc3nc(-c4cc(OC)ccc4OC)no3)nnc2-c2ccccc2)cc1	inactive: -6.49%
COc1ccc(C2=CC(c3ccccc3Cl)n3nc(-c4ccc(C)cc4)nc3N2)cc1 (centres undefined)	inactive: -12.6%
CCOC(=O)c1c(NC(=O)CCCOc2ccc(C)cc2)sc2c1CCC(C)C2 (centres undefined)	inactive: 3.73%
CCc1nnc(SCC(=O)Nc2ccc(Cl)cc2F)c2cc3occc3n12	inactive: 1.68%

Structure (SMILES)	activity change, negative = cytotoxicity
CCc1ccc(CNC(=O)c2ccc(CS(=O)c3ccc(Br)cc3)o2)cc1 (centres undefined)	inactive: -9.36%
CCOC(=O)Cn1c(=O)n(-c2ccccc2OC)c2nc(-c3ccccc3)nc(C(N)=O)c21	inactive: -2.86%
Cn1c2c(c(=O)n(C)c1=O)C(c1cccc(O)c1)CC(=O)N2 (centres undefined)	inactive: 24.7%
COc1cccc(NS(=O)(=O)c2ccc3[nH]c4c(c3c2)CCCCCC4)c1	inactive: -7.38%
COc1ccc(NC(=O)C(NC(=O)Cc2cccs2)c2ccc(OC)cc2)cc1 (centres undefined)	inactive: 11.4%
CCc1ccc(CN(C(=O)c2ccc(OC)cc2)C2CCS(=O)(=O)C2)cc1 (centres undefined)	inactive: -11.8%
COc1ccc(-c2onc(C)c2C)cc1S(=O)(=O)N1CCc2ccccc21	inactive: -29%
CC1CCN(C(=O)CCS(=O)(=O)c2cc3c(cc2Cl)NC(=O)CO3)CC1	inactive: 13.1%
CCOC(=O)c1nnn(CC(=O)NC(=O)Nc2ccccc2F)c1C(=O)OCC	inactive: -3.12%
CCCCSc1nnc2[nH]c(=O)cc(C)n12	inactive: -8.69%
O=C(c1cc(-c2ccc(Br)cc2)n[nH]1)N1CCN(S(=O)(=O)c2ccc(Br)s2)CC1	inactive: -12.1%
COc1ccc(-c2cn3c(n2)sc2cc(C(=O)Nc4ccc(F)cc4)ccc23)cc1	inactive: 11.8%
CC(=O)N1CCC2(CC1)OC(=O)C(C)=C2C(=O)NCc1ccccc1Cl	inactive: 5.24%
CC(=O)OC1=C(C(C)=O)N(Cc2ccccc2)S(=O)(=O)c2ccccc21	inactive: -6.07%
Cc1cc(NC(=O)c2ccc(F)cc2)ccc1-c1cc2ccccc2oc1=O	inactive: -5.46%
Cc1ccc(Cl)cc1NC(=O)c1csnn1	inactive: 3.3%
Cc1ccccc1CSc1ncc(Cl)c(C(=O)NCc2ccccc2)n1	inactive: -0.308%
CCOC(=O)c1ccc(N2C(=O)c3[nH]nc(-c4ccc(C)cc4)c3C2c2ccc(O)cc2)cc1 (centres undefined)	inactive: -11.7%
CCC(=O)N1CCc2cc(Br)cc(S(=O)(=O)CCC(=O)Nc3ccc(CC)cc3)c21	inactive: 7.32%
CCN(CC)S(=O)(=O)c1ccc(NC(=O)c2nn(C)c3c2CSc2ccccc2-3)cc1	inactive: 0.61%
Cc1cccc(CC(=O)NC2CC(=O)N(c3ccc4c(c3)OCCO4)C2)c1 (centres undefined)	inactive: -3.62%
Fc1ccc(Nc2nc(SCc3cccc(F)c3)nc3ccccc23)cc1	inactive: -22%
Cc1c(C(=O)NCc2ccccc2Cl)sc2nc3n(c(=O)c12)CCCC3	inactive: -1.72%
COc1ccc(Br)c2c1-c1nc(NC(=O)c3ccc(F)cc3)sc1C2	inactive: 12.6%
